# Measurements as given in PubChem BioAssay AID1745845 (National Center for Advancing Translational Sciences (NCATS), 2022).
# Where “and” joins values, the source holds several entries; their conditions need not be identical. Identical values can stand only once. Out of some 360,000 compounds screened, about 2,600 (0.72%) were called active. Inconclusive means that the source gave no clear call. Such entries were picked first, then a sample of the others. Calls come from the whole dose curve; as a rule, active = well fitted inhibition curve with a large enough effect; inconclusive = small, poorly fitted or top-dose-only effect; inactive = no such curve, though single readings can be large or run the other way. Potencies beside an inconclusive call are fits to weak or partial responses and may not hold up. A structure can be active in one record and inactive in another.
# Assay: Primary qHTS for Inhibitors of ATXN expression; note: nearly all actives have a fitted effect of over 55% in size
# Conditions: HEK-293 ATXN2-luciferase reporter, luminescence, 24 h; activity change, negative = inhibition: at 57 µM (top of the series)
# Summary of the method: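 qHTS (up to 57 uM final) was run with 24 h compound exposure of reporter cells at 37 °C. Each well was multiplexed: SteadyGlo luminescence measured ATXN2-luciferase expression after a fluorogenic Gly-Phe-AFC viability readout (25 uM final).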
# % is set by controls: 0 for no effect and ±100 for the full control effect; potency is the fitted concentration of half-maximal effect; tags give direction and shape of the fitted curve.
Structure (SMILES),Potency,"activity change, negative = inhibition"
Cc1ccc(S(=O)(=O)Nc2ccccc2/C=N/c2nc3ccccc3n2C)cc1,"inconclusive: 37.7 µM [inhibitor, single point]",–
CCCCOc1ccc(S(=O)(=O)NCc2csc(C)n2)cc1,inactive,–
CC(=O)Nc1cccc(C(=O)/C=C/c2ccc(C)cc2)c1,inactive,–
Cc1ccc(-c2nc(CS(=O)(=O)CC(=O)N3CCc4ccccc4C3)c(C)o2)cc1,"inconclusive: 28.2 µM [inhibitor, partial curve, poor fit]",–
Cc1ccccc1NC1=C(Cl)C(=O)N(C2CCCCC2)C1=O,inactive,–
COc1ccc(C(=O)Nc2c(C)csc2C(=O)O)cc1,"inconclusive: 6.7 µM [inhibitor, partial curve, poor fit]",–
Cc1cc([N+](=O)[O-])c(C)cc1-c1ccc(/C=N/NC(=O)Cn2nnnc2N)o1,"inconclusive: 0.947 µM [inhibitor, partial curve, poor fit]",–
Cc1cccc(C)c1OCC(O)CN1CCN(c2ccccn2)CC1 (configuration not stated),inactive,–
CCOC(=O)c1c(C)nc2sc3c(=O)n(-c4ccc(C(C)=O)cc4)nnc3c2c1-c1ccc(Cl)cc1,inactive,–
Cc1cccc(N(CC(O)Cn2c3ccccc3c3ccccc32)S(=O)(=O)c2ccc(F)cc2)c1 (configuration not stated),"inconclusive: 39.8 µM [inhibitor, single point]",–
COc1ccc(CCNC(=O)c2ccc(Nc3nc4ccccc4n4nnnc34)cc2)cc1OC,"inconclusive: 5.01 µM [inhibitor, full curve]",–
CCc1nc2ccc(C(=O)Nc3cccc(NS(C)(=O)=O)c3)cn2c1N(C)C(=O)c1cccc(OC)c1,inactive,–
COc1ccc(C(C)(NC(C)=O)c2nc(-c3cccc(C(=O)O)c3)cs2)cc1 (configuration not stated),inactive,–
CN(CCCNC(=O)c1cc2c(Cl)nc3ccccc3c2s1)Cc1ccccc1,"inconclusive: 35.5 µM [inhibitor, single point]",–
CCOc1ccc(C(=O)Nc2nnc(C3=COCCO3)o2)cc1,inactive,–
COc1cc(C(=O)NCc2ccncc2)cc(Br)c1OCc1ccccc1,"inconclusive: 17.8 µM [inhibitor, partial curve, poor fit]",–
C/C=C(/C)C(=O)OC1c2c(ccc3ccc(=O)oc23)OC(C)(C)C1OC(=O)/C(C)=C\C (configuration not stated),"inconclusive: 35.5 µM [inhibitor, single point]",–
C=C1C(=O)[C@]23C[C@H]1CCC2[C@]1(C)CCC[C@@](C)(C(=O)O)C1C[C@@H]3O (some centres not stated),active: 3.55 µM,–
CC(C)C1C(=O)N(Cc2cn(Cc3ccco3)nn2)CCS(=O)(=O)N1Cc1ccc(-c2ccccc2)cc1 (configuration not stated),"inconclusive: 39.8 µM [inhibitor, single point]",–
COc1ccc(CCNCc2ccccc2N2CCCC2)cc1,"inconclusive: 25.1 µM [inhibitor, single point]",–
O=C(N/N=C/c1c(O)ccc2ccccc12)c1[nH]ncc1Br,"inconclusive: 1.68 µM [inhibitor, full curve, poor fit]",–
COc1ccc(/C=C2/SC(=S)N(CCC(=O)O)C2=O)cc1,"inconclusive: 0.562 µM [inhibitor, full curve]",–
CCN(CC)S(=O)(=O)c1ccc(NC(=O)NCc2noc3ccc(C)cc23)cc1,"inconclusive: 25.1 µM [inhibitor, single point]",–

Structure (SMILES),Potency,"activity change, negative = inhibition"
Nc1nc(SCC(=O)Nc2ccc3c(c2)OCO3)n[nH]1,inactive,–
COC(=O)c1ccc(C)c(N(CCO)CCO)c1,inactive,–
COc1ccc(Cn2cccc(NC(=O)Nc3ccc(F)cc3)c2=O)cc1,inactive,–
CCc1nc2ccc(C(=O)Nc3cc(-c4ccccc4)ccc3OC)cn2c1N(CCN(C)C)CC1CC1,"inconclusive: 14.1 µM [inhibitor, partial curve, poor fit]",–
COc1cccc(/C=N/NC(=O)c2c(C)nc3ccc(Cl)cn23)c1O,–,inconclusive: -69.8% [inhibitor]
COc1ccccc1NS(=O)(=O)c1cc(NC(=O)c2ccc(Cl)nc2)ccc1N1CCCC1,inactive,–
Cc1cc(N/N=C/c2ccccc2[N+](=O)[O-])nc(-n2nc(C)cc2C)n1,"inconclusive: 9.47 µM [inhibitor, partial curve, poor fit]",–
CC(=O)Nc1cc(C(C)C)c(O)c(C(C)C)c1,inactive,–
Cc1cccc(-c2nnc(SCc3cc(=O)c4cccc(Cl)c4[nH]3)n2C)c1,"inconclusive: 20 µM [inhibitor, single point]",–
COc1ccc(C2C(C(N)=O)=C(C)Nc3nc(SCc4ccccc4Cl)nn32)cc1OC (configuration not stated),inactive,–
CCCC(=O)NC1CCc2cc(OC)c(OC)c(OC)c2-c2ccc(OC)c(=O)cc21 (configuration not stated),inactive,–
O=C(c1ccc(CSCc2ccccc2F)o1)N1CCN(c2ccc(N3CCOCC3)nn2)CC1,"inconclusive: 35.5 µM [inhibitor, single point]",–
COc1cccc(CNc2nc(NCc3ccccc3OC)nc3ccsc23)c1,"inconclusive: 25.1 µM [inhibitor, single point]",–
CCc1nc2ccccc2n1Cc1ccc(OC)c(OC)c1,inactive,–
COc1ccc(C(=O)Nc2ccccc2N2CCOCC2)cc1S(=O)(=O)N1CCCC1,inactive,–
O=C(c1ccc(N2CCN(C(=O)c3ccccc3)CC2)cc1)c1cccc(F)c1,–,inconclusive: -44.4% [inhibitor]
CCCCCCCNC(=O)C1(CC2CC(c3ccc(Cl)cc3)=NO2)CCN(C(=O)CCCCCBr)CC1 (configuration not stated),"inconclusive: 39.8 µM [inhibitor, partial curve, poor fit]",–
CCCCC1CC2=C(C(=O)OC(C)(C)O2)C(c2ccc(F)cc2)O1 (configuration not stated),inactive,–
CCC(CO)Oc1cc(NCc2cccc(O)c2)c2ncn(C(C)C)c2c1 (configuration not stated),"inconclusive: 25.1 µM [inhibitor, partial curve, poor fit]",–
Cc1cccc(N=N/C(=C\O)C(=O)c2cccs2)c1,"inconclusive: 29.9 µM [inhibitor, partial curve, poor fit]",–
O=C(Nc1cc(C(F)(F)F)ccc1-n1cncn1)c1cn2ccccc2n1,inactive,–
CN(C)CCCN1c2ccccc2Sc2ccc(Cl)cc21,"inconclusive: 25.1 µM [inhibitor, single point] and active: 20 µM",–
Nc1nc(NCCc2ccccc2)nc(NCc2ccccc2)c1[N+](=O)[O-],"inconclusive: 35.5 µM [inhibitor, single point]",–

Structure (SMILES),Potency,"activity change, negative = inhibition"
CC(C)Nc1ccc(C(CC(N)=O)NC(=O)Cc2ccc(Cl)cc2)cc1[N+](=O)[O-] (configuration not stated),"inconclusive: 25.1 µM [inhibitor, single point]",–
CCOc1cc(/C=C/C(=O)c2ccc3c(c2)OCCO3)ccc1OCC(=O)N(C)C,"inconclusive: 18.9 µM [inhibitor, partial curve, poor fit]",–
Nc1nc(-c2cccs2)c(NC(=O)c2ccccc2)s1,"inconclusive: 31.6 µM [inhibitor, single point]",–
COc1ccc(C(=O)NC(=S)Nc2cccc3ncccc23)cc1[N+](=O)[O-],"inconclusive: 11.2 µM [inhibitor, partial curve, poor fit]",–
COc1ccc(C(=O)N(Cc2ccco2)Cc2cccs2)c(O)c1,inactive,–
Oc1c(Br)cc(Br)cc1/C=N/NC(=S)N[C@H]1CC2C=CC1C2 (some centres not stated),"inconclusive: 22.4 µM [inhibitor, single point]",–
S=C(NCC1CCCO1)N1CCc2ccccc2C1 (configuration not stated),inactive,–
Cc1cc(N2CC(C)OC(C)C2)n2cc(-c3ccccc3)nc2n1 (configuration not stated),inactive,–
O=C(OC12CC3CC(CC(C3)C1)C2)c1ccc(NCc2cc(O)ccc2O)cc1,"inconclusive: 7.52 µM [inhibitor, full curve, poor fit]",–
O=C(Nc1nnc(-c2ccco2)o1)c1cccc2ccccc12,"inconclusive: 12.6 µM [inhibitor, partial curve, poor fit]",–
COc1ccccc1N1CCN(CC(=O)c2c[nH]c3ccccc23)CC1,inactive,–
Nc1ccc(C(=O)Nc2cccc(-c3nc(N4CCOCC4)c4oc5ncccc5c4n3)c2)cn1,"inconclusive: 19.3 µM [inhibitor, partial curve]",–
Cc1nc2c(OCc3ccc(C(F)(F)F)cc3)cccn2c1N(C)Cc1cccs1,"inconclusive: 31.6 µM [inhibitor, single point]",–
O=C(NCc1nc2ccccc2[nH]1)C1=C[C@H](c2ccc(C(F)(F)F)cc2)C[C@H](OCc2ccc(CO)cc2)O1,"inconclusive: 39.8 µM [inhibitor, single point]",–
N#CCCn1cc(/C=N/NC(N)=S)c(-c2ccc(-c3ccccc3)cc2)n1,"inconclusive: 18.9 µM [inhibitor, partial curve, poor fit]",–
Cc1ccc(-c2noc(CCC(=O)NCCCN3CCN(c4cccc(Cl)c4)CC3)n2)cc1,"inconclusive: 14.1 µM [inhibitor, partial curve, poor fit]",–
O=C(NCCn1cc(SCc2ccc(C(F)(F)F)cc2)c2ccccc21)c1ccccc1F,"inconclusive: 31.6 µM [inhibitor, single point]",–
O=C(NN=C1CCN(Cc2ccccc2)CC1)C(O)c1ccccc1 (configuration not stated),"inconclusive: 8.91 µM [inhibitor, single point]",–
CCC1=C([N+](=O)[O-])C(c2ccc3c(c2)OCO3)NC(=O)N1 (configuration not stated),"inconclusive: 0.178 µM [inhibitor, full curve, poor fit]",–
COc1ccc(C(=O)Nc2ccc3nc(N4CCN(C)CC4)cc(C)c3c2)c(OC)c1,"inconclusive: 37.7 µM [inhibitor, partial curve, poor fit]",–
COc1cnc(-c2ccccn2)nc1NC(C)C,"inconclusive: 7.94 µM [inhibitor, full curve, poor fit]",–
